Laboratory results from PubChem BioAssay AID588855 (National Center for Advancing Translational Sciences (NCATS), 2011).
About 5,000 (1.2%) of roughly 410,000 compounds were called active. Inconclusive means that the source gave no clear call. Such entries were picked first, then a sample of the others. Calls follow the shape of the dose curve; as a rule, active = well fitted inhibition curve with a large enough effect; inconclusive = small, poorly fitted or top-dose-only effect; inactive = no such curve, though single readings can be large or run the other way. Potencies of inconclusive entries are doubtful fits and often do not repeat.

Test: qHTS for Inhibitors of TGF-b; also: nearly all actives have a fitted effect of over 65% in size
Settings: HepG2 CAGA-GFP TGF-b/SMAD3 reporter, GFP fluorescence, 18 h, TGF-beta stimulated, 500 pg/mL final; series mostly up to 46.1 µM; activity, negative = inhibition: at the top concentration
How it was run: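 Inhibition was scored as loss of TGF-beta-induced (500 pg/mL final, 18 hours, 37 degrees C) GFP in HEPG2 cells carrying a CAGA-GFP reporter, in DMEM with 1% FBS. Well GFP was summed per cell; Activity was normalised to unstimulated and stimulated DMSO wells, then concentration-response fitting.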
% is scaled to controls: 0 for no effect and ±100 for the full control effect; potency is read from the fitted curve at half-maximal effect; tags tell the direction and shape of the fitted curve.

Row | Compound | Potency | activity, negative = inhibition
1 | COc1ccc(C(c2nnnn2-c2c(C)cccc2C)N2CCC3(CC2)C(=O)NCN3c2ccccc2)cc1 (stereo not drawn) | inconclusive: 28.2 µM [inhibitor, single point] | –
2 | COCCCn1c(N)c(C(=O)NCCC(C)C)c2nc3ccccc3nc21 | inconclusive: 35.5 µM [inhibitor, single point] | –
3 | Cc1cccc(C)c1OCC(=O)Nc1ccc(Cl)cc1C(=O)c1ccccc1 | inconclusive: 2.82 µM [inhibitor, partial curve, poor fit] | –
4 | CCCSc1nc(O)c(CC)c(=O)n1C(C)CC (stereo not drawn) | – | inactive: -2.67%
5 | Cc1cccc(OCC(=O)N2CCN(Cc3cccnc3)CC2)c1 | – | inactive: 8.73%
6 | O=C(Cc1c[nH]c2ccccc12)NNCc1ccc(N(CCCl)CCCl)cc1 | – | inactive: 5.26%
7 | COc1cc(/C=C/c2nc3ccccc3c(=O)n2-c2ccc(O)cc2)ccc1O | inconclusive: 35.5 µM [inhibitor, single point] | –
8 | S=C(NCCc1ccccc1)N1Cc2cc(N3CCOCC3)ccc2-n2nncc2C1 | inconclusive: 22.4 µM [inhibitor, single point] | –
9 | CCOc1ccc(NC(=O)CN(c2ccc(Cl)cc2C)S(=O)(=O)c2ccccc2)cc1 | inconclusive: 20 µM [inhibitor, single point] | –
10 | COc1cccc(-n2c(SCC(=O)c3ccc(Cl)cc3)nc3c([nH]c4ccccc43)c2=O)c1 | inconclusive: 1.41 µM [inhibitor, partial curve, poor fit] | –
11 | CCOC(=O)C1CCN(C(C)C(=O)c2c[nH]c3ccccc23)CC1 (stereo not drawn) | inconclusive: 35.5 µM [inhibitor, single point] | –
12 | CC(=NCc1ccco1)c1c(O)n(-c2ccc(C)cc2)c(=O)[nH]c1=O | – | inactive: -26.1%
13 | Cc1ccc(-n2c(/C=C/c3ccccc3)nc3ccccc3c2=O)cc1Cl | inconclusive: 15.8 µM [inhibitor, single point] | –
14 | CC(=O)[C@H]1CCC2C3CC[C@H]4C[C@@H](O)CC[C@]4(C)C3CC[C@@]21C (stereo partly drawn) | – | inactive: -3.29%
15 | O=[P+](Cc1ccccc1)Cc1ccccc1 | inconclusive: 11.2 µM [inhibitor, partial curve, poor fit] | –
16 | CCCCCSc1cc(OC)c(CCN)cc1OC | inconclusive: 35.5 µM [inhibitor, partial curve, poor fit] | –
17 | CCOC(=O)c1ccc(N2C(=O)CC(N3CCC(O)(c4ccc(Br)cc4)CC3)C2=O)cc1 (stereo not drawn) | inconclusive: 35.5 µM [inhibitor, single point] | –
18 | N#CC(C#N)=NNc1ccc(S(=O)(=O)N2CCCC2)cc1 | inconclusive: 12.6 µM [inhibitor, single point] | –
19 | CC(O)(CS(=O)(=O)c1ccccc1)C(=O)Nc1cccc(C(F)(F)F)c1 (stereo not drawn) | – | inactive: -11.8%
20 | O=C(COC(=O)c1ccc(O)cc1)Nc1ccc(Cl)cc1C(=O)c1ccccc1 | inconclusive: 14.1 µM [inhibitor, single point] | –
21 | CN(CC=CCN(C)P(=S)(N1CC1)N1CC1)P(=S)(N1CC1)N1CC1 | – | inactive: 9.24%
22 | COC(=O)C1=C(c2ccccc2)C[C@@H]2CC[C@H]1N2C(=O)NCCS(C)=O (stereo partly drawn) | inconclusive: 1.12 µM [inhibitor, full curve, poor fit] | –

Row | Compound | Potency | activity, negative = inhibition
23 | Oc1cc2c(cc1CN1CCN(c3ccc(F)cc3)CC1)OCO2 | – | inactive: -1.11%
24 | COc1ccc(NP(=O)(Oc2ccc(Cl)cc2)Oc2ccc(Cl)cc2)cc1OC | active: 20 µM | –
25 | Nc1c(C(=O)NCc2ccco2)c2nc3ccccc3nc2n1CCN1CCCCC1 | inconclusive: 11.2 µM [inhibitor, partial curve] | –
26 | Cc1ccsc1/C=C1\C(=O)NC(=S)N(C)C1=O | inconclusive: 35.5 µM [inhibitor, single point] | –
27 | CCOP(=S)(OCC)Oc1cc(C)oc(=O)c1 | – | inactive: 2.79%
28 | CCCCn1c(O)c(C(CC)=NCc2ccc(F)cc2)c(=O)[nH]c1=O | inconclusive: 31.6 µM [inhibitor, single point] | –
29 | O=C1C=CC2C3C(=O)N(c4ccccc4)C(=O)C3C1N2Cc1ccccc1 (stereo not drawn) | active: 2.82 µM | –
30 | CCc1ccc(CNCCc2c[nH]c3ccccc23)cc1 | inconclusive: 28.2 µM [inhibitor, single point] | –
31 | COc1cc2c(cc1OC)-c1c3c(cc4c1[C@@H](C2)N(C)CC4)OCO3 | – | inactive: -27%
32 | CC(CNC(=O)CCS(=O)(=O)c1ccc2c(c1)oc(=O)n2C)c1ccccc1 (stereo not drawn) | inconclusive: 5.01 µM [inhibitor, full curve] | –
33 | COc1ccc(CN2Cc3cc(-c4ccc(OC)cc4)ccc3-n3nncc3C2)cc1 | inconclusive: 35.5 µM [inhibitor, single point] | –
34 | C[C@H]1[C@@H](OS(=O)(=O)O)C[C@@H]2C[C@H]([C@@H](O)c3cc(=O)[nH]c(=O)[nH]3)NC3=NC[C@H]1N32 | active: 2.51 µM | –
35 | O=P(N1CCCCCC1)(N1CCCCCC1)N1CC1 | – | inactive: 1.04%
36 | CC1CCN(C(=O)N2c3ccccc3Sc3ccccc32)CC1 | inconclusive: 22.4 µM [inhibitor, partial curve, poor fit] | –
37 | CCOc1ccc(Nc2c(S(=O)(=O)c3ccc(C)cc3)cnc3ccccc23)cc1 | inconclusive: 35.5 µM [inhibitor, single point] | –
38 | Cc1oc(-c2ccccc2F)nc1CS(=O)(=O)CC(=O)N1CCN(c2cccc(C(F)(F)F)c2)CC1 | inconclusive: 12.6 µM [inhibitor, partial curve, poor fit] | –
39 | CCn1c(NN=O)nc2ccccc21 | inconclusive: 35.5 µM [inhibitor, single point] | –
40 | O=c1[nH]c2ccccc2n1C1CCN(C(CCc2ccccc2)c2nnnn2C2CCCC2)CC1 (stereo not drawn) | inconclusive: 35.5 µM [inhibitor, single point] | –
41 | O=C(Cc1ccccc1)N1CCN(CCCc2ccccc2)CC1 | – | inactive: -5.12%
42 | CC1=CC2OC3CC4OC(=O)C=CC=CC(C(C)O)OCC(O)C5(C)OC5C(=O)OCC2(CC1O)C4(C)C31CO1 (stereo not drawn) | active: 0.158 µM | –
43 | CC1CCC(C(=O)NC(C(=O)N2CCC3(CC2)OCCO3)C(C)C)CC1 (stereo not drawn) | inconclusive: 11.2 µM [inhibitor, partial curve, poor fit] | –
